The other results are listed elsewhere or left out. Rule as the data show it: active = 3.2 or more and inactive = the rest. Most of these values are background signal.
Tests used:
Assay in all cases: enrichment score (SH2-bound / input frequency) (ratio); bacterial display of known human phosphotyrosine sites (pTyr-Var adds point mutants) read by sequencing; higher = stronger binding; tyrosines were phosphorylated by kinases first
Conditions in all cases: peptide library: Human pTyr
SHP2 C-SH2 domain E139D = target: SHP2 C-SH2 domain E139D
[1] = target: SHP2 C-SH2 domain wild-type
SHP2 N-SH2 domain L43F = target: SHP2 N-SH2 domain L43F
SHP2 N-SH2 domain T42A = target: SHP2 N-SH2 domain T42A
SHP2 N-SH2 domain T52S = target: SHP2 N-SH2 domain T52S
[2] = target: SHP2 N-SH2 domain wild-type

Measured: enrichment score
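Also: displayed peptides selected on beads carrying the immobilized SH2 domain, with library peptides lacking any tyrosine serving as negative controls.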

KKDGLKFYTDPSYFF [WASF3_HUMAN_151]
inactive: SHP2 C-SH2 domain E139D 1.29 | [1] 1.67 | SHP2 N-SH2 domain L43F 1.15 | SHP2 N-SH2 domain T42A 1.46 | SHP2 N-SH2 domain T52S 1.58 | [2] 1.32

KLHCIVTYCEYCQEE [ZMYM2_HUMAN_680]
inactive: SHP2 C-SH2 domain E139D 1.9 | [1] 2.33 | SHP2 N-SH2 domain L43F 1.86 | SHP2 N-SH2 domain T42A 2.36 | SHP2 N-SH2 domain T52S 2.34 | [2] 2.65

SLVKPENYRRLDIVR [VHL_HUMAN_175]
inactive: SHP2 C-SH2 domain E139D 1.02 | [1] 0.735 | SHP2 N-SH2 domain L43F 0.815 | SHP2 N-SH2 domain T42A 0.782 | SHP2 N-SH2 domain T52S 0.906 | [2] 0.961

SCGVDGDYEDAELNP [BCR_HUMAN_246]
inactive: SHP2 C-SH2 domain E139D 1.3 | [1] 0.96 | SHP2 N-SH2 domain L43F 1.23 | SHP2 N-SH2 domain T42A 1.63 | SHP2 N-SH2 domain T52S 1.34 | [2] 1.54

VGNGSSRYSPSQNSP [BCLF1_HUMAN_284]
inactive: SHP2 C-SH2 domain E139D 0.751 | [1] 0.691 | SHP2 N-SH2 domain L43F 0.614 | SHP2 N-SH2 domain T42A 0.55 | SHP2 N-SH2 domain T52S 0.722 | [2] 0.555

SEKGHRKYREASPPA [ZC3H4_HUMAN_155_YA]
inactive: SHP2 C-SH2 domain E139D 0.812 | [1] 0.85 | SHP2 N-SH2 domain L43F 0.782 | SHP2 N-SH2 domain T42A 0.945 | SHP2 N-SH2 domain T52S 0.887 | [2] 0.803

SDDEGMPYTRPVKFK [WDR44_HUMAN_479]
inactive: SHP2 C-SH2 domain E139D 0.846 | [1] 0.763 | SHP2 N-SH2 domain L43F 0.981 | SHP2 N-SH2 domain T42A 0.661 | SHP2 N-SH2 domain T52S 0.771 | [2] 0.799

VLLVNRHYAKISDFG [ZAP70_HUMAN_474]
inactive: SHP2 N-SH2 domain L43F 0.941 | SHP2 N-SH2 domain T42A 1.04 | SHP2 N-SH2 domain T52S 1.07 | [2] 1.15
active: SHP2 C-SH2 domain E139D 3.48 | [1] 6.88

CQSCVSEYKQVGSHP [ZMYM2_HUMAN_502]
inactive: SHP2 C-SH2 domain E139D 0.797 | [1] 0.724 | SHP2 N-SH2 domain L43F 0.556 | SHP2 N-SH2 domain T42A 0.699 | SHP2 N-SH2 domain T52S 0.741 | [2] 0.804

GVVGGEDYEEVDRAS [ZN598_HUMAN_306_YA]
inactive: SHP2 C-SH2 domain E139D 0.799 | [1] 0.81 | SHP2 N-SH2 domain L43F 0.748 | SHP2 N-SH2 domain T42A 0.718 | SHP2 N-SH2 domain T52S 0.811 | [2] 0.863

TSVYESPYSDPEELK [ZAP70_HUMAN_319]
inactive: SHP2 C-SH2 domain E139D 1.25 | [1] 0.915 | SHP2 N-SH2 domain L43F 0.591 | SHP2 N-SH2 domain T42A 0.604 | SHP2 N-SH2 domain T52S 0.524 | [2] 0.819

VVSEEPIYIVTEFMS [YES_HUMAN_345]
inactive: SHP2 C-SH2 domain E139D 1.32 | [1] 1.06 | SHP2 N-SH2 domain L43F 2.1 | SHP2 N-SH2 domain T42A 2.09 | SHP2 N-SH2 domain T52S 2 | [2] 1.59

VHSGENPYECLECGK [ZN264_HUMAN_343]
inactive: SHP2 C-SH2 domain E139D 0.603 | [1] 0.512 | SHP2 N-SH2 domain L43F 0.523 | SHP2 N-SH2 domain T42A 0.596 | SHP2 N-SH2 domain T52S 0.616 | [2] 0.789

SLSYDIHYWIGQDSS [VIL1_HUMAN_64]
inactive: SHP2 C-SH2 domain E139D 1.99 | [1] 2.18 | SHP2 N-SH2 domain L43F 2.12 | SHP2 N-SH2 domain T42A 1.74 | SHP2 N-SH2 domain T52S 2.02 | [2] 2.04

DLINRMDYVEINIDH [VIGLN_HUMAN_437]
inactive: SHP2 C-SH2 domain E139D 0.775 | [1] 1 | SHP2 N-SH2 domain L43F 0.893 | SHP2 N-SH2 domain T42A 0.897 | SHP2 N-SH2 domain T52S 0.881 | [2] 0.922

MPMDTSVYESPASDP [ZAP70_HUMAN_315_YA]
inactive: SHP2 C-SH2 domain E139D 0.6 | [1] 0.525 | SHP2 N-SH2 domain L43F 0.476 | SHP2 N-SH2 domain T42A 0.603 | SHP2 N-SH2 domain T52S 0.576 | [2] 0.568

THTGEKPYECIKCGK [ZN670_HUMAN_281]
inactive: SHP2 C-SH2 domain E139D 1.35 | [1] 0.9 | SHP2 N-SH2 domain L43F 0.986 | SHP2 N-SH2 domain T42A 0.843 | SHP2 N-SH2 domain T52S 1.03 | [2] 1.18

KTASSLSYDIHAWIG [VIL1_HUMAN_60_YA]
inactive: SHP2 C-SH2 domain E139D 1.51 | [1] 1.54 | SHP2 N-SH2 domain L43F 1.58 | SHP2 N-SH2 domain T42A 1.4 | SHP2 N-SH2 domain T52S 1.52 | [2] 1.64

ESDTEEFYDAPEDVH [WDR44_HUMAN_11]
inactive: SHP2 C-SH2 domain E139D 1.21 | [1] 1.11 | SHP2 N-SH2 domain L43F 1.24 | SHP2 N-SH2 domain T42A 1.11 | SHP2 N-SH2 domain T52S 1.42 | [2] 1.18

GHRKAREYSPPAAPS [ZC3H4_HUMAN_158_YA]
inactive: SHP2 C-SH2 domain E139D 0.742 | [1] 0.593 | SHP2 N-SH2 domain L43F 0.737 | SHP2 N-SH2 domain T42A 0.583 | SHP2 N-SH2 domain T52S 0.706 | [2] 0.777

EEQPAPGYDTHGRLR [ZO1_HUMAN_1165]
inactive: SHP2 C-SH2 domain E139D 0.68 | [1] 0.545 | SHP2 N-SH2 domain L43F 0.908 | SHP2 N-SH2 domain T42A 0.62 | SHP2 N-SH2 domain T52S 0.653 | [2] 0.655

DDFRAPLYKTVEIKG [ZDHC5_HUMAN_91]
inactive: SHP2 C-SH2 domain E139D 0.904 | [1] 0.799 | SHP2 N-SH2 domain L43F 0.841 | SHP2 N-SH2 domain T42A 0.632 | SHP2 N-SH2 domain T52S 0.934 | [2] 1

AEAAASAYYNPGNPH [WBP2_HUMAN_231]
inactive: SHP2 C-SH2 domain E139D 0.728 | [1] 0.768 | SHP2 N-SH2 domain L43F 0.739 | SHP2 N-SH2 domain T42A 0.91 | SHP2 N-SH2 domain T52S 0.638 | [2] 0.621

MPMDTSVYESPYSDP [ZAP70_HUMAN_315]
inactive: SHP2 C-SH2 domain E139D 0.471 | [1] 0.443 | SHP2 N-SH2 domain L43F 0.814 | SHP2 N-SH2 domain T42A 0.519 | SHP2 N-SH2 domain T52S 0.481 | [2] 0.533

KKEIEDLYSRLGKQP [WNK4_HUMAN_1164]
inactive: SHP2 C-SH2 domain E139D 1.22 | [1] 1.17 | SHP2 N-SH2 domain L43F 1.14 | SHP2 N-SH2 domain T42A 1.25 | SHP2 N-SH2 domain T52S 1.06 | [2] 1.45

TADRDPVYDESTDEE [XRCC4_HUMAN_229]
inactive: SHP2 C-SH2 domain E139D 1 | [1] 1.2 | SHP2 N-SH2 domain L43F 0.973 | SHP2 N-SH2 domain T42A 1.12 | SHP2 N-SH2 domain T52S 1.18 | [2] 0.902

SPPDASEYMTGKKLP [YY1_HUMAN_254_YA]
inactive: SHP2 C-SH2 domain E139D 0.677 | [1] 0.726 | SHP2 N-SH2 domain L43F 0.703 | SHP2 N-SH2 domain T42A 0.714 | SHP2 N-SH2 domain T52S 0.672 | [2] 0.515

ALGADDSYATARSAG [ZAP70_HUMAN_492_YA]
inactive: SHP2 C-SH2 domain E139D 0.605 | [1] 0.532 | SHP2 N-SH2 domain L43F 0.597 | SHP2 N-SH2 domain T42A 0.482 | SHP2 N-SH2 domain T52S 0.461 | [2] 0.546

TTKDGWVYAANHTEE [WWOX_HUMAN_33_YA]
inactive: SHP2 C-SH2 domain E139D 0.788 | [1] 0.706 | SHP2 N-SH2 domain L43F 0.821 | SHP2 N-SH2 domain T42A 0.946 | SHP2 N-SH2 domain T52S 0.759 | [2] 0.936

SEKGHRKYREYSPPY [ZC3H4_HUMAN_155]
inactive: SHP2 C-SH2 domain E139D 1.14 | [1] 0.983 | SHP2 N-SH2 domain L43F 1.07 | SHP2 N-SH2 domain T42A 0.997 | SHP2 N-SH2 domain T52S 1.14 | [2] 1.1

EGGEDPLYVARRLVR [WRIP1_HUMAN_534]
inactive: SHP2 C-SH2 domain E139D 0.57 | [1] 0.577 | SHP2 N-SH2 domain L43F 0.634 | SHP2 N-SH2 domain T42A 0.693 | SHP2 N-SH2 domain T52S 0.539 | [2] 0.557

EEAERKLYSGAQTDG [ZAP70_HUMAN_178]
inactive: SHP2 C-SH2 domain E139D 0.666 | [1] 0.61 | SHP2 N-SH2 domain L43F 0.707 | SHP2 N-SH2 domain T42A 0.808 | SHP2 N-SH2 domain T52S 0.613 | [2] 0.766

SGLSMSSYSVPRTPD [YAP1_HUMAN_407]
inactive: SHP2 C-SH2 domain E139D 0.865 | [1] 1.75 | SHP2 N-SH2 domain L43F 0.451 | SHP2 N-SH2 domain T42A 0.537 | SHP2 N-SH2 domain T52S 0.463 | [2] 0.597

FEDCGGGYTPDCSSN [BCR_HUMAN_328]
inactive: SHP2 C-SH2 domain E139D 0.573 | [1] 0.421 | SHP2 N-SH2 domain L43F 0.499 | SHP2 N-SH2 domain T42A 0.4 | SHP2 N-SH2 domain T52S 0.413 | [2] 0.61

SLSADIHYWIGQDSS [VIL1_HUMAN_64_YA]
inactive: SHP2 C-SH2 domain E139D 1.1 | [1] 1.12 | SHP2 N-SH2 domain L43F 1.04 | SHP2 N-SH2 domain T42A 1.18 | SHP2 N-SH2 domain T52S 1.12 | [2] 1.22

DTLNSDGYTPEPARI [ZAP70_HUMAN_292]
inactive: SHP2 C-SH2 domain E139D 0.638 | [1] 0.462 | SHP2 N-SH2 domain L43F 0.506 | SHP2 N-SH2 domain T42A 0.531 | SHP2 N-SH2 domain T52S 0.497 | [2] 0.594

Reference: the supplement of paper PMC10369915
